# Experimental data reported in PubChem BioAssay (NCATS).
# Inconclusive means that the source gave no clear call. Such entries were picked first, then a sample of the others. For some of these results: No potency is given beside an inconclusive call; the fits are too rough. For some of these results: “Side channel” marks fits to a control or component signal instead of the main read-out. Where a structure was tested more than once in an assay, its records may differ in their call. Activity calls are given as the source filed them. Unless noted, the call rests on the fitted dose curve; in most records, active means well fitted curve in the direction sought with a large enough effect; inconclusive means small, poorly fitted or top-dose-only effect, or another doubt; inactive means no such curve, though single readings can be large; an effect the other way counts as inactive or inconclusive.
# What was measured:
# [1] = P-glycoprotein substrates identified in KB-3-1 adenocarcinoma cell line, qHTS therapeutic library screen (AID 1346986); conditions: KB-3-1 parental cells viability, CellTiter-Glo, 72 h; further: nearly all actives have a fitted effect of over 60% in size;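 further: potency is for cytotoxicity meaning loss of cell viability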
# Summary of the method: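 Using luminescence to quantify ATP, parental and P-gp-overexpressing KB cells were compared after 72 h compound titration. KB-8-5-11 was also run with the P-gp inhibitor tariquidar.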
# [2] = target: Luciferin 4-monooxygenase (Photinus pyralis) (UniProt P08659); assay: Primary firefly luciferase (FLuc) qHTS assay for identification of artifact compounds. (AID 1845220); further: nearly all actives have a fitted effect of over 60% in size
# Summary of the method: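 In this counter-screen for luciferase artifacts, test compounds met substrate (10 uM each luciferin and ATP) before 10 nM enzyme started the reaction. Light output was measured 5 min later.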
# [3] = target: Androgen receptor (Homo sapiens) (UniProt P10275); assay: qHTS assay for small molecule agonists of androgen receptor signaling (AID 588515; active means well fitted curve in the direction sought with a large enough effect in the signal ratio, with a control signal flat; inconclusive means small, poorly fitted or top-dose-only effect, or effect the other way, or a change in a side signal; inactive means no such curve, though single readings can be large or run the other way; the % refers to the signal ratio; on activation: on the % scale 0 is the no-effect control and ±100 the full control effect); conditions: AR-UAS-bla HEK293, beta-lactamase ratio, agonist 16 h; activation: active compounds read high
# Sequence of UniProt P10275 (P10275 whole entry, looked up): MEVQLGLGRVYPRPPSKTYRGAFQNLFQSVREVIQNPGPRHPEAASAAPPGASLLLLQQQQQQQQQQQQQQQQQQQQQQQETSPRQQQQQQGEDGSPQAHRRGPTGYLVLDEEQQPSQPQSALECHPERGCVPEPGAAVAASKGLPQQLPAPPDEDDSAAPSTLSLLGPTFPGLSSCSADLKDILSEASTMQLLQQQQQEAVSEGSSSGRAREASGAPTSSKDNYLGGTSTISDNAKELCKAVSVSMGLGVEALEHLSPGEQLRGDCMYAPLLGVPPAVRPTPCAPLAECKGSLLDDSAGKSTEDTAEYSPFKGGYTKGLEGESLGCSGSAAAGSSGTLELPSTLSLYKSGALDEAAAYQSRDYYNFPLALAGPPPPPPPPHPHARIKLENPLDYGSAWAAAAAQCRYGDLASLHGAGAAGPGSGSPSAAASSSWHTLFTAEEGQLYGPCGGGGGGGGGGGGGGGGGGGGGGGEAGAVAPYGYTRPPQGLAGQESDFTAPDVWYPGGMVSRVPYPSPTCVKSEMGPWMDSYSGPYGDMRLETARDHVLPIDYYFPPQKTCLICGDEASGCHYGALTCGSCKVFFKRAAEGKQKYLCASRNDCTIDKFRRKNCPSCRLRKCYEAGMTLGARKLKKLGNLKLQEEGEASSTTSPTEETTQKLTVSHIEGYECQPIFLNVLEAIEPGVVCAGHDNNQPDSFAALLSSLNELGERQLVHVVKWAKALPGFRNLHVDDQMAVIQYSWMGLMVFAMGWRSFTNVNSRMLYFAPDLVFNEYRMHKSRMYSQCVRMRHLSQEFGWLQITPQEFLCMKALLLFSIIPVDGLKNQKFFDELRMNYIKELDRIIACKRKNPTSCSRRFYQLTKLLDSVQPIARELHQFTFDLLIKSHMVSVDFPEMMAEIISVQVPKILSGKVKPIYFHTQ
# Summary of the method: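 Stimulation of an AR-responsive β-lactamase reporter in GripTite HEK293 cells was measured after 16 h compound exposure at 37 °C, via CCF4 fluorescence after 2 h RT. EC50 from Hill fits, normalized to R1881 at 30 nM.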
# [4] = target: Luciferin 4-monooxygenase (Photinus pyralis) (UniProt P08659); assay: Biochemical firefly luciferase enzyme assay for NPC (AID 624030); further: nearly all actives have a fitted effect of over 70% in size;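 on activity change, negative = inhibition: purified P. pyralis luciferase at 10 nM with luciferin and ATP substrate; 0% = DMSO and -100% = full luciferase inhibition by PTC124 control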
# Summary of the method: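 Counter-screen for direct inhibition of the luciferase enzyme by approved-drug library compounds, run at 10 nM enzyme in 50 mM Tris acetate (final). Luminescence was read within 5 min of enzyme-buffer addition and normalized to PTC124 versus DMSO (0%).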
# [5] = target: Glucocorticoid receptor (Homo sapiens) (UniProt P04150); assay: GR-GFP Redistribution (AID 450;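 active means compounds whose dose series gives a full or clear partial fitted curve of increased nuclear translocation; inconclusive means weak partial curve or effect only at the top dose; inactive means no dose-dependent translocation response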); conditions: U2OS GR-GFP nuclear translocation, laser cytometry, 2 h
# [6] = system: Nanoluciferase (engineered Oplophorus gracilirostris luciferase); assay: Primary Nanoluciferase (NLuc) qHTS assay for identification of artifact compounds. (AID 1845222);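 further: NLuc secreted into diluted conditioned medium of S16 cells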
# Summary of the method: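 Using secreted nanoluciferase in S16 culture medium (0.22 um filtered, 1:55 dilution), compounds were preincubated 15 min at RT. Signal was generated with Nano-Glo reagent (1:100) over 5 min.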
# Furin (Homo sapiens) = Furin (Homo sapiens) (UniProt P09958); assay: Furin counterscreen qHTS for Zika virus inhibitors (AID 1347149); further: nearly all actives have a fitted effect of over 70% in size
# Sequence of UniProt P09958 (P09958 whole entry, looked up): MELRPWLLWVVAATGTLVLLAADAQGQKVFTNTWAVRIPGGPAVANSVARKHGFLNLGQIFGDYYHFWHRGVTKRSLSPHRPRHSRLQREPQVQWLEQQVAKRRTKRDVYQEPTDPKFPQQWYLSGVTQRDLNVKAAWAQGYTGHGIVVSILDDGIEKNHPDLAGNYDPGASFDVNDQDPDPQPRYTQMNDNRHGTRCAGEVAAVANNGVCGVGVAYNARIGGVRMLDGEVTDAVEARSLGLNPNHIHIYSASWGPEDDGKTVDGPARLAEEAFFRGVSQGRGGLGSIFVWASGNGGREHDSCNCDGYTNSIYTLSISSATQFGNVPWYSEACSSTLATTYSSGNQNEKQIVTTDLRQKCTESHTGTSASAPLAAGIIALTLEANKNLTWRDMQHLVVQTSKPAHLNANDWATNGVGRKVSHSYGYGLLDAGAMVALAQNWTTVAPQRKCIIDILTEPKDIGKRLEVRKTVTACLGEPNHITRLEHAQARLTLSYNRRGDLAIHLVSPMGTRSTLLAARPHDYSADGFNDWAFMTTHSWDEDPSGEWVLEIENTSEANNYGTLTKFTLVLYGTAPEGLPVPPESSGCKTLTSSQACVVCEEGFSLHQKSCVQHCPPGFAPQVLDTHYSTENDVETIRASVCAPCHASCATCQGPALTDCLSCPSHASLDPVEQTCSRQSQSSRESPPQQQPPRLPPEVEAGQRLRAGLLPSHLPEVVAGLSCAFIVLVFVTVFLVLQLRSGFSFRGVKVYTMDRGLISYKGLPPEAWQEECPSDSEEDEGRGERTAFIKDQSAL
# Summary of the method: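 Counterscreen measures cleavage of 2 microM BOC-RVRR-AMC, below its ~15 microM Km, by 5 nM full-length human furin at pH 7.0 after a 15-min compound preincubation. Inhibition derives from the 15-min fluorescence increase at 37C.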
# [7] = system: Zika virus NS2B-NS3 protease (unlinked complex); assay: Confirmatory screen GU AMC qHTS for Zika virus inhibitors (AID 1347153);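 further: enzyme at 25 nM with substrate at 10 µM below its Km of 18.3 µM; nearly all actives have a fitted effect of over 70% in size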
# Summary of the method: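 Compounds were preincubated 15 min at room temperature with 25 nM noncovalent NS2B-NS3 protease at pH 8.0; AMC substrate added at 10 microM and 15-min fluorescence gain (340/450 nm) converted to percent inhibition, fitted 4-parameter.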
# [8] = ZIKV-mCherry secondary qHTS for Zika virus inhibitors (AID 1347158)
# Summary of the method: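 This orthogonal imaging screen measured ZIKV-mCherry infection of Vero cells exposed to compound, MOI 1, 48-72 h. Percent infection came from segmented nuclei scored mCherry-positive above 3 SD of negative controls.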
# [9] = target: Endonuclease 4 (Escherichia coli (strain K12)) (UniProt P0A6C1); assay: Counterscreen for APE1 Inhibitors: qHTS Validation Assay for Inhibitors of Endonuclease IV (AID 1708); on activity change, negative = inhibition: on the % scale 0 is the no-effect control and ±100 the full control effect
# Summary of the method: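 Measured as reaction progress, the fluorescence gain between first and third kinetic reads after adding 50 nM TAMRA/BHQ-2 THF duplex to 2 nM enzyme preincubated 15 min with compound; 2 mM MgCl2, pH 7.5.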
# [10] = target: Ferritin light chain (Equus caballus) (UniProt P02791); assay: qHTS Validation Assay for Identification of Novel General Anesthetics (AID 2323); on activity change, negative = inhibition: on the % scale 0 is the no-effect control and ±100 the full control effect
# Sequence of UniProt P02791 (P02791 whole entry, looked up): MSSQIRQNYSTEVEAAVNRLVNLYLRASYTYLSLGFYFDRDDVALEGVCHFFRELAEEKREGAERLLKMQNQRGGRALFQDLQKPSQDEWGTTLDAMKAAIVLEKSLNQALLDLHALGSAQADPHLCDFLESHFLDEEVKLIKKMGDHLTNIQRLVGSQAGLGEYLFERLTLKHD
# Summary of the method: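 Horse-spleen apoferritin (10 uM) in PBS with 50% saturated 1-aminoanthracene; compounds pin-transferred, 10 min at room temperature. Fluorescence read at 380/535 nm, normalized to free 1-AMA and 1-AMA/apoferritin values; four-parameter Hill fit.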
# Papain (Carica papaya) = Papain (Carica papaya) (UniProt P00784); assay: Primary qHTS assay for inhibitors of the protease papain (AID 1645873);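 further: papain turnover of Z-FR-AMC read as the AMC fluorescence gain over 10 min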
# Sequence of UniProt P00784 (P00784 whole entry, looked up): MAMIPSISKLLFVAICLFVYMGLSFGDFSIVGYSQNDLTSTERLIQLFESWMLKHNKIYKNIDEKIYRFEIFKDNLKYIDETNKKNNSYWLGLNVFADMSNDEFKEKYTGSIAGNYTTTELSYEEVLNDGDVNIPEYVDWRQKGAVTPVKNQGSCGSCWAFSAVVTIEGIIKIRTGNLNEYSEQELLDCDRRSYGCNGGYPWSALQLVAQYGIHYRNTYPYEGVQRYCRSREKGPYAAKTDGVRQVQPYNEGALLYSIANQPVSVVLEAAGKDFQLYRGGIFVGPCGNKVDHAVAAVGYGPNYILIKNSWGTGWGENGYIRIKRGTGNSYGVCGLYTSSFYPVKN
# [11] = qHTS of pediatric cancer cell lines to identify multiple opportunities for drug repurposing: Confirmatory screen for Rh41 cells (AID 1347123);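 further: 48 h compound exposure; nearly all actives have a fitted effect of over 60% in size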
# Summary of the method: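 Cells (500-1,000/well) in growth media were settled 5 h at 37 degrees C, then given compounds for 48 h. Viability was read as CellTiter-Glo luminescence. Primary runs used MIPE at 11 points (0.78 nM-46 µM) and NPC at 8 points (0.59 nM-46 µM); follow-ups used 11 points.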
# [12] = Quantitative High-Throughput drug screen in 47 multiple myeloma cell lines against the NCATS MIPE library collection: MMM1_PLB cell viability assay (AID 1918976); further: nearly all actives have a fitted effect of over 35% in size
# Summary of the method: (§1)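 Readout: median RLU from CellTiter-Glo after 5 min at room temperature. Preceding step was 48 h drug treatment of 500 cells/well at 37 °C, 5% CO2, with DMSO-only and media-only control wells.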
# [13] = Quantitative High-Throughput drug screen in 47 multiple myeloma cell lines against the NCATS MIPE library collection: L363_DSMZ cell viability assay (AID 1918984); conditions: L363 myeloma viability, CellTiter-Glo ATP luminescence, 48 h; viability (% of control): at 45.8 µM (top of the series); further: nearly all actives have a fitted effect of over 40% in size
# Summary of the method: as §1
# [14] = NCATS anti-infectives library activity on the primary C. elegans qHTS viability assay (AID 1745855; calls by dose curve)
# Summary of the method: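 Titration-based screen in worms: eggs hatched overnight in M9, L1 larvae fed TOP10 capsules in S medium with compound, incubated 21 °C for 7 days; fluorescent objects gated by size and intensity at days 0, 3 and 7.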
# [15] = Cell Viability - Hek293 (AID 427;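 active means compounds whose dose-response curve shows a full or clear partial loss of cell viability, called from curve shape rather than a numeric limit; inconclusive means weak partial curves or an effect only at the top dose; inactive means no dose-dependent loss of viability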;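 further: cells exposed to compound for 40 hours at 37 °C before reading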); conditions: qHTS
# Summary of the method: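 Luminescent ATP content (CellTiter-Glo, 20 min at room temperature) was measured after a 40 hr, 37 °C compound exposure of HEK293 cells. AC50 values came from Hill-equation fits of qHTS concentration-response data normalized to DMSO and 100 uM tamoxifen.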
# [16] = target: Androgen receptor (Homo sapiens) (UniProt P10275); assay: qHTS assay for small molecule antagonists of androgen receptor signaling (AID 588516; active means well fitted curve in the direction sought with a large enough effect in the signal ratio, with a control signal flat, not every such curve was filed as active; inconclusive means small, poorly fitted or top-dose-only effect, or effect the other way, or a change in a side signal; inactive means no such curve, though single readings can be large or run the other way; the % refers to the signal ratio); conditions: AR-UAS-bla HEK293, beta-lactamase ratio, antagonist mode, 16 h; activity change, negative = inhibition: at 76.8 µM (top of the series)
# Summary of the method: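 Antagonist-mode qHTS: inhibition of R1881 (10 nM)-driven beta-lactamase expression in GripTite HEK 293 cells is measured after 16 h; values are Hill-derived IC50s normalized between R1881 and DMSO wells.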
# [17] = target: Glucocorticoid receptor (Homo sapiens) (UniProt P04150); assay: qHTS assay for small molecule antagonists of glucocorticoid receptor signaling (AID 588533; active means well fitted inhibition curve with a large enough effect in the signal ratio, with a control signal flat, not every such curve was filed as active; inconclusive means small, poorly fitted or top-dose-only effect, or effect the other way, or a change in a side signal; the % refers to the signal ratio;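 further: cells stimulated with 2 nM dexamethasone as agonist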); conditions: HeLa MMTV-bla, GRE beta-lactamase ratio, antagonist mode, 18 h; activity change, negative = inhibition: at 76.8 µM (top of the series)
# [18] = target: Vitamin D3 receptor (Homo sapiens) (UniProt P11473); assay: qHTS assay for small molecule antagonists of vitamin D receptor signaling (AID 588541; calls by dose curve;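 on activity change, negative = inhibition: receptor activated by calcitriol during compound treatment; on the % scale 0 is the no-effect control and ±100 the full control effect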); conditions: HEK293T VDR-UAS-bla, beta-lactamase ratio, antagonist mode; activity change, negative = inhibition: at 76.7 µM (top of the series)
# Potency means the concentration at half of the fitted maximal effect; tags describe the fitted curve by direction and shape.
structure (smiles),measurement,setting,value
CCn1c(N)c(C(=O)NC)c(=O)c2ccc(C#CC(C)(O)COC)nc21 (stereo not given),Potency,[1],"inconclusive [inhibitor, single point]"
C=C1C(=O)OC[C@@H]1C/C=C(\C)CC1CC(C)C(=O)O1 (stereo not given in full),Potency,[2],"inconclusive [inhibitor, single point]"
O=C(Oc1ccccc1)c1cccc(C(=O)Oc2ccccc2)c1,Potency,[3],"inconclusive [side channel, rising, partial curve, poor fit]"
same,Potency,[4],"inconclusive [inhibitor, partial curve, poor fit]"
COc1ccccc1N1CCN(CCN2C(=O)CC3(CCCC3)CC2=O)CC1,Potency,[5],inconclusive [single point]
CC1(C)Oc2ncnc(N)c2N=C1c1ccc(C23CCC(CC(=O)O)(CC2)CC3)cc1,Potency,[2],"inconclusive [inhibitor, partial curve, poor fit]"
CC(C)=C1CC2C(CCC2(C)O)C(C)(O)CC1=O (stereo not given),Potency,[1],inactive
COc1c(F)cccc1C(=O)N1C[C@@H](C)CC[C@H]1CNc1ccc(Br)cn1,Potency,[6],"inconclusive [inhibitor, partial curve]"
CC1(C)CCC(C)(C)c2cc3c(cc21)Sc1ccccc1N=C3c1ccc(C(=O)O)cc1,Potency,Furin (Homo sapiens),"inconclusive [inhibitor, full curve]"
same,Potency,[7],"inconclusive [inhibitor, full curve]"
same,Potency,[8],"inconclusive [inhibitor, full curve]"
CC(C)(C)NCC(O)c1cc(O)cc(O)c1 (stereo not given),Potency,[9],inactive
same,Potency,[10],inactive
same,Potency,Papain (Carica papaya),"inconclusive [inhibitor, single point]"
O=C(CCCCCCC(=O)Nc1ccccc1)NO,Potency,[11],"inconclusive [cytotoxic, single point]"
same,Potency,[12],"inconclusive [cytotoxic, full curve, poor fit]"
same,Potency,[13],active: 1.87 µM
C=C1C(=C/C=C2\CCC[C@]3(C)[C@@H]([C@H](C)/C=C/[C@@H](O)C4CC4)CC[C@@H]23)C[C@@H](O)C[C@@H]1O,Potency,[14],"inconclusive [inhibitor, single point]"
NCCNc1cccc2ccccc12,Potency,[15],inconclusive [single point]
same,activation,[3],inconclusive: -4.49%
same,Potency,[16],active: 39.8 µM
same,Potency,[17],"inconclusive [inhibitor, single point]"
same,Potency,[18],active: 31.6 µM
CC(=O)O[C@]1(C(C)=O)CC[C@H]2[C@@H]3C=C(Cl)C4=CC(=O)[C@@H]5C[C@@H]5[C@]4(C)[C@H]3CC[C@@]21C,Potency,[15],inconclusive [partial curve]
same,Potency,Papain (Carica papaya),"inconclusive [inhibitor, single point]"
CC(=O)OC/C=C(C)/C=C/C=C(C)/C=C/C1=C(C)CCCC1(C)C,"activity change, negative = inhibition",[18],inconclusive: 6.62%
Cc1nc2sccn2c(=O)c1CCN1CCC(=C(c2ccc(F)cc2)c2ccc(F)cc2)CC1,Potency,Furin (Homo sapiens),"inconclusive [inhibitor, partial curve, poor fit]"
CC1=C(C)C(=O)C(CCCCC#CCCCC#CCO)=C(C)C1=O,Potency,[9],"inconclusive [inhibitor, partial curve, poor fit]"
same,Potency,[10],"inconclusive [inhibitor, partial curve]"
CCCCCCCC/C=C\CCCCCCCC(=O)NCc1ccc(O)c(OC)c1,Potency,[5],inconclusive [partial curve]
O=C(NCc1ccccc1)[C@H](Cc1ccccc1)NC(=O)[C@@H]1O[C@@H]1C(=O)NCCc1ccc(O)cc1,Potency,[11],"inconclusive [cytotoxic, full curve, poor fit]"
Cc1cccc(Nc2cc(Cl)nc(SCC(=O)O)n2)c1C,"activity change, negative = inhibition",[16],inconclusive: -45.5%
same,"activity change, negative = inhibition",[17],inconclusive: -31%
same,Potency,[6],"inconclusive [inhibitor, partial curve, poor fit]"
COC(=O)C=CC(=O)OC,Potency,[12],"inconclusive [rising, full curve, poor fit]"
same,Potency,[13],"inconclusive [cytotoxic, partial curve]"
CN(C)CC(=O)Nc1ccc2[nH]c(=O)c3ccccc3c2c1,Potency,[14],"inconclusive [inhibitor, single point]"
CCN(CC)CCNC(=O)c1ccc(NC(C)=O)cc1,Potency,[4],inactive
N#Cc1ccc(N2N=C3c4ccc(C(=O)O)cc4CC[C@@H]3[C@@H]2C2CCCC2)cc1Cl,Potency,[7],active: 15.6 µM
same,Potency,[8],active: 2.51 µM
